Data published in the supplement of paper PMC11741623.
The other results are listed elsewhere or left out. Interaction screen of human proteins with wild-type SARS-CoV-2 proteins by split-DHFR complementation in yeast, 1 µg/mL methotrexate. Value = fitness of the pair (three or more lineages) minus that of the viral protein without a human partner, on a scale set by negative (0) and fused positive (1) controls, mean of up to three cultures; higher = more likely to interact. Active = false discovery rate below 0.05 (one-sided t-test) in at least one culture. Nearly all pairs are not hits, and differences among them are mostly noise (correlation between cultures about 0.3); most hits were seen in one culture only. Human sequences are the Swiss-Prot entries looked up by gene name; the clone may be another isoform. NSP2 values were corrected by the authors for a growth advantage. Listed are human proteins with a hit and a random twelfth of the others.

Key:
Assay in all cases: yeast fitness gain over the viral ORF with no human partner (scaled fitness); higher = more likely to interact
[1] = biological target: SARS-CoV-2 E
Protocol: (§1)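 Split mouse DHFR complementation in pooled diploid yeast: human ORFeome clones carry one fragment and viral ORFs the other; barcoded lineages compete in 1 µg/mL methotrexate and fitness is read by barcode sequencing in up to three cultures.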

[2] = biological target: SARS-CoV-2 M
Protocol: as §1

[3] = biological target: SARS-CoV-2 N
Protocol: as §1

[4] = biological target: SARS-CoV-2 NSP1
Protocol: as §1

[5] = biological target: SARS-CoV-2 NSP10
Protocol: as §1

[6] = biological target: SARS-CoV-2 NSP12
Protocol: as §1

[7] = biological target: SARS-CoV-2 NSP13
Protocol: as §1

[8] = biological target: SARS-CoV-2 NSP14
Protocol: as §1

[9] = biological target: SARS-CoV-2 NSP15
Protocol: as §1

[10] = biological target: SARS-CoV-2 NSP16
Protocol: as §1

[11] = biological target: SARS-CoV-2 NSP2
Protocol: as §1

[12] = biological target: SARS-CoV-2 NSP4
Protocol: as §1

[13] = biological target: SARS-CoV-2 NSP5
Protocol: as §1

[14] = biological target: SARS-CoV-2 NSP6
Protocol: as §1

[15] = biological target: SARS-CoV-2 NSP7
Protocol: as §1

[16] = biological target: SARS-CoV-2 NSP8
Protocol: as §1

[17] = biological target: SARS-CoV-2 NSP9
Protocol: as §1

[18] = biological target: SARS-CoV-2 ORF10
Protocol: as §1

[19] = biological target: SARS-CoV-2 ORF3A
Protocol: as §1

[20] = biological target: SARS-CoV-2 ORF3B
Protocol: as §1

[21] = biological target: SARS-CoV-2 ORF6
Protocol: as §1

[22] = biological target: SARS-CoV-2 ORF7A
Protocol: as §1

[23] = biological target: SARS-CoV-2 ORF7B
Protocol: as §1

[24] = biological target: SARS-CoV-2 ORF8
Protocol: as §1

[25] = biological target: SARS-CoV-2 ORF9B
Protocol: as §1

[26] = biological target: SARS-CoV-2 ORF9Bwu (the 73-codon ORF)
Protocol: as §1

[27] = biological target: SARS-CoV-2 S
Protocol: as §1

Measured: yeast fitness gain

B1: FAM131B, Q86XD5 (protein)
chain: MDSTSSLHGSSLHRPSTEQTRTDFSWDGINLSMEDTTSILPKLKRNSNAYGIGALAKSSFSGISRSMKDHVTKPTAMGQGRVAHMIEWQGWGKTPAVQPQHSHESVRRDTDAYSDLSDGEKEARFLAGVMEQFAISEATLMAWSSMDGEDMSVNSTQEPLGCNYSDNYQELMDSQDALAQAPMDGWPHSYVSQGMYCLGSSDAWEASDQSLIASPATGSYLGPAFDDSQPSLHEMGPSQPASGYSALEPPPLLGGDTDWAPGVGAVDLARGPAEEEKRPLAPEEEEDAGCRDLESLSPREDPEMSTALSRKVSDVTSSGVQSFDEEEGEANN
inactive: [1] -0.0415 | [2] 0.0343 | [3] 0.0348 | [4] 0.00542 | [5] 0.0184 | [6] 0.0158 | [7] 0.0406 | [8] 0.0592 | [9] 0.0338 | [10] 0.000948 | [11] -0.0948 | [12] -0.0574 | [13] 0.0125 | [14] 0.014 | [15] 0.0461 | [16] 0.0482 | [17] 0.0516 | [18] 0.00311 | [19] -0.0172 | [20] 0.0388 | [21] -0.00371 | [22] -0.00813 | [23] -0.00148 | [24] 0.0139 | [25] 0.0257 | [26] -0.0197 | [27] 0.0513

B2: IGIP, A6NJ69 (protein)
chain: MCSYYHMKKRSVSGCNITIFAVMFSHLSAGKSPCGNQANVLCISRLEFVQYQS
inactive: [1] -0.0661 | [2] 0.0469 | [3] -0.0127 | [4] 0.0191 | [5] 0.0347 | [6] 0.0574 | [7] -0.0116 | [8] 0.0402 | [9] -0.0797 | [10] -0.0885 | [11] -0.165 | [13] -0.0712 | [14] 0.0185 | [15] 0.171 | [16] -0.0468 | [17] -0.0507 | [18] 0.0493 | [20] -0.0611 | [21] 0.0478 | [22] 0.0252 | [23] -0.00203 | [24] 0.054 | [25] -0.0215 | [26] -0.0288 | [27] 0.0716

B3: INIP, Q9NRY2 (protein)
chain: MAANSSGQGFQNKNRVAILAELDKEKRKLLMQNQSSTNHPGASIALSRPSLNKDFRDHAEQQHIAAQQKAALQHAHAHSSGYFITQDSAFGNLILPVLPRLDPE
inactive: [1] -0.0432 | [2] -0.105 | [3] 0.0429 | [4] -0.156 | [5] -0.0553 | [6] 0.025 | [7] 0.0592 | [8] 0.12 | [9] 0.0244 | [10] 0.0439 | [11] -0.0339 | [12] 0.106 | [13] 0.00332 | [14] 0.0567 | [15] 0.0171 | [16] -0.0525 | [17] 0.0712 | [18] -0.0151 | [19] 0.111 | [20] -0.0055 | [21] 0.00262 | [22] -0.0678 | [23] -0.0384 | [24] 0.102 | [25] 0.00954 | [26] 0.0245 | [27] 0.0376

B4: KCMF1, Q9P0J7 (protein)
chain: MSRHEGVSCDACLKGNFRGRRYKCLICYDYDLCASCYESGATTTRHTTDHPMQCILTRVDFDLYYGGEAFSVEQPQSFTCPYCGKMGYTETSLQEHVTSEHAETSTEVICPICAALPGGDPNHVTDDFAAHLTLEHRAPRDLDESSGVRHVRRMFHPGRGLGGPRARRSNMHFTSSSTGGLSSSQSSYSPSNREAMDPIAELLSQLSGVRRSAGGQLNSSGPSASQLQQLQMQLQLERQHAQAARQQLETARNATRRTNTSSVTTTITQSTATTNIANTESSQQTLQNSQFLLTRLNDPKMSETERQSMESERADRSLFVQELLLSTLVREESSSSDEDDRGEMADFGAMGCVDIMPLDVALENLNLKESNKGNEPPPPPL
inactive: [1] -0.0461 | [2] -0.00854 | [3] 0.0427 | [4] 0.0242 | [5] 0.0474 | [6] 0.0371 | [7] -0.00554 | [8] -0.163 | [9] -0.0309 | [10] -0.0298 | [11] -0.0837 | [12] -0.0611 | [13] 0.0239 | [14] -0.0502 | [15] 0.0633 | [16] 0.0512 | [17] -0.0497 | [18] 0.0318 | [19] 0.0116 | [20] 0.0248 | [21] 0.012 | [22] 0.0268 | [23] -0.029 | [24] 0.0503 | [25] 0.0152 | [26] 0.0347 | [27] 0.00116

B5: KDELR3, O43731 (protein)
chain: MNVFRILGDLSHLLAMILLLGKIWRSKCCKGISGKSQILFALVFTTRYLDLFTNFISIYNTVMKVVFLLCAYVTVYMIYGKFRKTFDSENDTFRLEFLLVPVIGLSFLENYSFTLLEILWTFSIYLESVAILPQLFMISKTGEAETITTHYLFFLGLYRALYLANWIRRYQTENFYDQIAVVSGVVQTIFYCDFFYLYVTKVLKGKKLSLPMPI
inactive: [1] -0.1 | [2] -0.0841 | [4] 0.0514 | [5] 0.0123 | [9] 0.0667 | [11] -0.29 | [13] 0.0823 | [14] 0.118 | [15] -0.129 | [16] 0.00415 | [17] 0.0682 | [18] 0.0398 | [19] 0.0462 | [23] 0.0902 | [24] 0.0439 | [26] -0.0156 | [27] 0.0125
active: [12] 0.746

B6: LZTS2, Q9BRK4 (protein)
chain: MAIVQTLPVPLEPAPEAATAPQAPVMGSVSSLISGRPCPGGPAPPRHHGPPGPTFFRQQDGLLRGGYEAQEPLCPAVPPRKAVPVTSFTYINEDFRTESPPSPSSDVEDAREQRAHNAHLRGPPPKLIPVSGKLEKNMEKILIRPTAFKPVLPKPRGAPSLPSFMGPRATGLSGSQGSLTQLFGGPASSSSSSSSSSAADKPLAFSGWASGCPSGTLSDSGRNSLSSLPTYSTGGAEPTTSSPGGHLPSHGSGRGALPGPARGVPTGPSHSDSGRSSSSKSTGSLGGRVAGGLLGSGTRASPDSSSCGERSPPPPPPPPSDEALLHCVLEGKLRDREAELQQLRDSLDENEATMCQAYEERQRHWQREREALREDCAAQAQRAQRAQQLLQLQVFQLQQEKRQLQDDFAQLLQEREQLERRCATLEREQRELGPRLEETKWEVCQKSGEISLLKQQLKESQAELVQKGSELVALRVALREARATLRVSEGRARGLQEAARARELELEACSQELQRHRQEAEQLREKAGQLDAEAAGLREPPVPPATADPFLLAESDEAKVQRAAAGVGGSLRAQVERLRVELQRERRRGEEQRDSFEGERLAWQAEKEQVIRYQKQLQHNYIQMYRRNRQLEQELQQLSLELEARELADLGLAEQAPCICLEEITATEI
inactive: [1] -0.111 | [2] -0.0917 | [5] -0.191 | [7] -0.222 | [10] -0.0229 | [11] -0.143 | [13] -0.107 | [15] -0.156 | [16] -0.136 | [22] 0.0121 | [23] -0.119 | [24] -0.2 | [25] -0.113 | [27] -0.000562

B7: NDUFA4L2, Q9NRX3 (protein)
chain: MAGASLGARFYRQIKRHPGIIPMIGLICLGMGSAALYLLRLALRSPDVCWDRKNNPEPWNRLSPNDQYKFLAVSTDYKKLKKDRPDF
inactive: [1] -0.112 | [2] -0.0192 | [3] -0.149 | [4] 0.00169 | [5] -0.00508 | [6] 0.0189 | [7] -0.0293 | [8] 0.0359 | [9] 0.0326 | [10] 0.0616 | [11] -0.154 | [12] -0.107 | [13] 0.00228 | [14] -0.0277 | [15] 0.00689 | [16] 0.0329 | [17] 0.021 | [18] -0.0402 | [19] 0.0869 | [20] 0.00596 | [21] 0.0349 | [22] -0.0154 | [23] 0.0313 | [24] -0.0155 | [25] -0.00477 | [26] 0.0132 | [27] -0.0861

B8: NOA1, Q8NC60 (protein)
chain: MLPARLPFRLLSLFLRGSAPTAARHGLREPLLERRCAAASSFQHSSSLGRELPYDPVDTEGFGEGGDMQERFLFPEYILDPEPQPTREKQLQELQQQQEEEERQRQQRREERRQQNLRARSREHPVVGHPDPALPPSGVNCSGCGAELHCQDAGVPGYLPREKFLRTAEADGGLARTVCQRCWLLSHHRRALRLQVSREQYLELVSAALRRPGPSLVLYMVDLLDLPDALLPDLPALVGPKQLIVLGNKVDLLPQDAPGYRQRLRERLWEDCARAGLLLAPGHQGPQRPVKDEPQDGENPNPPNWSRTVVRDVRLISAKTGYGVEELISALQRSWRYRGDVYLVGATNAGKSTLFNTLLESDYCTAKGSEAIDRATISPWPGTTLNLLKFPICNPTPYRMFKRHQRLKKDSTQAEEDLSEQEQNQLNVLKKHGYVVGRVGRTFLYSEEQKDNIPFEFDADSLAFDMENDPVMGTHKSTKQVELTAQDVKDAHWFYDTPGITKENCILNLLTEKEVNIVLPTQSIVPRTFVLKPGMVLFLGAIGRIDFLQGNQSAWFTVVASNILPVHITSLDRADALYQKHAGHTLLQIPMGGKERMAGFPPLVAEDIMLKEGLGASEAVADIKFSSAGWVSVTPNFKDRLHLRGYTPEGTVLTVRPPLLPYIVNIKGQRIKKSVAYKTKKPPSLMYNVRKKKGKINV
inactive: [1] -0.175 | [2] 0.0685 | [3] -0.0119 | [4] -0.181 | [5] -0.0444 | [6] 0.0343 | [7] 0.019 | [8] 0.0348 | [10] -0.0143 | [11] -0.115 | [12] -0.00621 | [13] 0.014 | [14] -0.000499 | [15] 0.0487 | [16] 0.0888 | [17] 0.0308 | [18] -0.0607 | [20] -0.0347 | [21] 0.0873 | [22] -0.0249 | [23] 0.0103 | [24] -0.0406 | [25] 0.0758 | [26] 0.0403 | [27] 0.00685
